Data: paper PMC4336329 (PLoS ONE, 2015)
About 2,200 (0.71%) of roughly 310,000 compounds showed an effect of 50% or more. The effect is printed as a negative number. The list shows a part of the results.

Each molecule was assayed against human ether-à-go-go-related gene (hERG) potassium channel (human, UniProt Q12809) (assay: primary screen, population patch clamp on CHO cells stably expressing hERG).
human ether-à-go-go-related gene (hERG) potassium channel, sequence (Q12809 whole entry, looked up): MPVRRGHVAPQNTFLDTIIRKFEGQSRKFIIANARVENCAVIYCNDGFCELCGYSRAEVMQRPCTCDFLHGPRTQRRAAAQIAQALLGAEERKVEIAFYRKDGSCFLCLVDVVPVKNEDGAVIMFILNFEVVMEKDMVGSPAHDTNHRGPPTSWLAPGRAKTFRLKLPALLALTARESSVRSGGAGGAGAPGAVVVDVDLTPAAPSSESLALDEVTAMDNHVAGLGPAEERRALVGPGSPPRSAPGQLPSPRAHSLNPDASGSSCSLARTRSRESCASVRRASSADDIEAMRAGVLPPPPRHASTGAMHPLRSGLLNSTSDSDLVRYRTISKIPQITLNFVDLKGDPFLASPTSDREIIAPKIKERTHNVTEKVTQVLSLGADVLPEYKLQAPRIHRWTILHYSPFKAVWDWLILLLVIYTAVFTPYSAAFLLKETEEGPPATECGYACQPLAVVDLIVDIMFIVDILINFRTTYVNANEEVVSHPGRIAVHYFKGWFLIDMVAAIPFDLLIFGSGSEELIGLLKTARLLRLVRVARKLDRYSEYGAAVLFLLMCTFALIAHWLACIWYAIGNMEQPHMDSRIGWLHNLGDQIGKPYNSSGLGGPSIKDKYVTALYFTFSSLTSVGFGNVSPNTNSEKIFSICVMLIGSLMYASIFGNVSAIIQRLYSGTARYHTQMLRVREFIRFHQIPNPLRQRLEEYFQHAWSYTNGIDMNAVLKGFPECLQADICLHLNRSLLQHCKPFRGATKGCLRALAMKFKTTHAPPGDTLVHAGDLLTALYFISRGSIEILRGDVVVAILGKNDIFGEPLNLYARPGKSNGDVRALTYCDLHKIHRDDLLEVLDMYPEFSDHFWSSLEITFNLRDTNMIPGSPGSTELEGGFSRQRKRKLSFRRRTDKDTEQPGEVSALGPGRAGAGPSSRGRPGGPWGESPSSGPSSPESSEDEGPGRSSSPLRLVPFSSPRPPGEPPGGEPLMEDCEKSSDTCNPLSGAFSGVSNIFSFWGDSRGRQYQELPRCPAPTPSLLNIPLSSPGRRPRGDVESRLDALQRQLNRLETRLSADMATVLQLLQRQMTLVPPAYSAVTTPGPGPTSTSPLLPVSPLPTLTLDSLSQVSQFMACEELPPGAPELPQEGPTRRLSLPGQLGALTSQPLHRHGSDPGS

SMILES	hERG current change (%, negative = inhibition) at 1uM [%]
O=C(CN(Cc1cccs1)C(=O)CNC(=O)c1ccco1)NC1CCCCC1	4.97
O=C(NCc1cccnc1)c1noc2c1CCCCC2	13.2
COc1ccc(/C=C(/C#N)S(=O)(=O)c2ccc(C)cc2)cc1	11.8
COc1ccc(-n2c(C)cc(C(=O)Cn3c(NCCO)nc4ccccc43)c2C)cc1	7.65
Cc1nc(Nc2ccccc2)sc1C	5.24
O=C(NCc1ccccc1)C1=C[C@@H](c2ccc3c(c2)OCO3)C[C@@H](OCCCCO)O1	7.83
O=C(O)CSc1nnc(-c2ccco2)o1	9.83
COC(=O)c1ccc(/C=N/NC(=S)NC(C)C)cc1	9.96
COc1ccc(S(=O)(=O)N2CCC(C(=O)NCc3ccco3)CC2)cc1C	9.74
CC(C)NC(=S)N/N=C/C1=CCC2CC1C2(C)C (stereo not shown)	16.9
O=C(CCC(=O)c1cccs1)OCC(=O)c1ccc(Cl)s1	14.8
COc1ccc(C(=O)OCC(=O)Nc2ccc(N3CCOCC3)cc2)cc1OC	6.6
O=C(NCC1CCCO1)c1ccc(Cl)c(F)c1F (stereo not shown)	13
COc1ccc(-c2cn(Cc3ccc(C)cc3)nn2)cc1	11.3
Cc1ccc(C(=O)Nc2ncc3c(n2)CC(c2ccco2)CC3=O)cc1 (stereo not shown)	15.5
CCCC[n+]1c(-c2ccc(Cl)cc2Cl)csc1Nc1ccccc1.[Cl-]	-2.84
O=C(COC(=O)Cc1ccccc1)Nc1ncc(Cl)cc1Cl	10.7
NC(=O)Cn1c(=O)n(CCC(=O)NCCSCc2ccccc2)c(=O)c2ccccc21	11.5
CC(C)NC(=O)COCc1cc(-c2ccc3c(c2)OCO3)on1	9.13
COc1cc(S(=O)(=O)N2CCC(c3nc4ccccc4s3)CC2)ccc1S(=O)(=O)NC1CCCC1	8.39

SMILES	hERG current change (%, negative = inhibition) at 1uM [%]
O=C1CCSc2ccc(Cl)cc2N1Cc1cccc(Cl)c1	-1.06
Cc1c(C(=O)C(=O)NCCc2ccc(S(N)(=O)=O)cc2)c2ccccc2n1C	4.26
COc1ccc(-c2csc(CCn3nc(C)cc3C)n2)cc1	16.7
CCCCc1ccc(NC(=O)CSc2nc3ncccc3[nH]2)cc1	15.3
Cc1cc(-c2n[nH]c(=S)n2Cc2ccco2)nn1C	15.3
CCOC(=O)C(C)c1nn(C)c(=O)c2ccccc12 (stereo not shown)	9.97
CSCC[C@H](NC(=O)[C@H](Cc1ccccc1)n1c(=O)[nH]c2ccccc2c1=O)C(=O)NCC1CCC(C(=O)O)CC1 (stereo partly shown)	9.22
CN1C(=O)c2c(sc3c2CCCC3)NC1c1ccccc1O (stereo not shown)	8.04
O=C(OC1CCc2ccccc2C1=O)c1ccccc1O (stereo not shown)	6.37
O=C(O)[C@H]1CCCN1S(=O)(=O)c1cccc2cccnc12	4.65
COc1ccc(-c2cc(-c3cccs3)c(C#N)c(SCC(=O)NCc3ccccc3OC)n2)cc1	-3.19
Cc1cccc(NC(=O)NC(=S)NC(=O)c2ccccc2)c1	-0.187
Cc1ncc2c(c1OC(=O)c1ccccc1)COC(C)(C)OC2	12.8
O=C(CSc1nnc(NC2CC2)s1)Nc1ccc(N2CCOCC2)cc1	2.17
COc1cccc(NS(=O)(=O)c2ccc3c(c2)C2C=CCC2C(c2ccc(C(=O)O)cc2)N3)c1 (stereo not shown)	6.39
COc1ccc(NC(=O)CCn2c(=S)[nH]c3ccccc3c2=O)cc1	15.3
O=C(O)c1cc(S(=O)(=O)O)cc(Nc2c3ccccc3nc3ccccc23)c1O	12.9
NC(=O)c1nn2c(C(F)(F)F)cc(-c3ccccc3)nc2c1Br	4.78
O=S(=O)(c1ccc(Br)s1)N1CCN(c2ccc(F)cc2)CC1	18.2
CCN(Cc1cccs1)C(=O)CN1C(=O)NC2(CCCc3ccccc32)C1=O (stereo not shown)	1.39

SMILES	hERG current change (%, negative = inhibition) at 1uM [%]
c1ccc(-c2nnc(-c3ccccn3)nc2NC2CCCCC2)cc1	0.903
O=C(NC(=S)Nc1ccccc1N1CCN(C(=O)c2ccccc2)CC1)c1ccccc1F	9.11
O=C(CN1C(=O)c2ccc([N+](=O)[O-])cc2C1=O)NCc1ccc(C(=O)O)cc1	5.75
Cc1ccnc2nc(C(=O)OCC(=O)N3CCc4ccccc43)nn12	16.4
Cc1cc(-c2ccccc2C(=O)NC2CCCCC2)on1	8.43
CC(C)CCN1C(=O)c2ccc(C(=O)NCc3ccccn3)cc2C1=O	-34.6
Cc1cc(C)cc(C(=O)Nc2ccc3[nH]c(=O)[nH]c3c2)c1	14.9
CC(Sc1ccc2c(c1)OCCO2)C(=O)Nc1ccc(N2CCOCC2)cc1 (stereo not shown)	6.44
COc1ccc(-c2nnn(CC(=O)N(CCO)C(C(=O)NC3CCCC3)c3ccncc3)n2)cc1 (stereo not shown)	13.6
CC(NC(=O)CSc1n[nH]c(N)n1)c1ccccc1 (stereo not shown)	7.03
Cc1cc(C)c(NC(=O)OCCN2CCOCC2)c(C)c1	0.695
Cc1ccc(-c2nc(CS(=O)(=O)CC(=O)N3CC(C)CC(C)C3)c(C)o2)cc1 (stereo not shown)	5.88
CN(C)C(=O)OCC1COc2ccccc2O1 (stereo not shown)	13.1
CON(C)C(=O)Nc1ccc(Cl)cc1	16.7
O=S1(=O)CCN(Cc2ccc(Cl)c(Cl)c2)CC1	13.8
CCN(CC)Cc1c(O)ccc2c1O/C(=C\C=C\c1ccccc1)C2=O	10.1
O=S(=O)(NCc1c(Cl)cccc1Oc1ccccc1)c1ccccc1	13.3
Cc1ccnc(N2CCC(C(=O)NCc3ccc4c(c3)OCO4)CC2)n1	-9.7
